Reference: publication PMC4336329 (PLoS ONE, 2015)
Among all 310,000 compounds or so, about 14,000 (4.5%) showed an effect of 50% or more. Effects have a minus sign here. This is one part of the list.

target: human ether-à-go-go-related gene (hERG) potassium channel (human, UniProt Q12809); experiment: primary screen, population patch clamp on CHO cells stably expressing hERG
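Also: peak tail current of the secondary pulse compared with the same well before compound.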

Chain of human ether-à-go-go-related gene (hERG) potassium channel (Q12809 whole entry, looked up): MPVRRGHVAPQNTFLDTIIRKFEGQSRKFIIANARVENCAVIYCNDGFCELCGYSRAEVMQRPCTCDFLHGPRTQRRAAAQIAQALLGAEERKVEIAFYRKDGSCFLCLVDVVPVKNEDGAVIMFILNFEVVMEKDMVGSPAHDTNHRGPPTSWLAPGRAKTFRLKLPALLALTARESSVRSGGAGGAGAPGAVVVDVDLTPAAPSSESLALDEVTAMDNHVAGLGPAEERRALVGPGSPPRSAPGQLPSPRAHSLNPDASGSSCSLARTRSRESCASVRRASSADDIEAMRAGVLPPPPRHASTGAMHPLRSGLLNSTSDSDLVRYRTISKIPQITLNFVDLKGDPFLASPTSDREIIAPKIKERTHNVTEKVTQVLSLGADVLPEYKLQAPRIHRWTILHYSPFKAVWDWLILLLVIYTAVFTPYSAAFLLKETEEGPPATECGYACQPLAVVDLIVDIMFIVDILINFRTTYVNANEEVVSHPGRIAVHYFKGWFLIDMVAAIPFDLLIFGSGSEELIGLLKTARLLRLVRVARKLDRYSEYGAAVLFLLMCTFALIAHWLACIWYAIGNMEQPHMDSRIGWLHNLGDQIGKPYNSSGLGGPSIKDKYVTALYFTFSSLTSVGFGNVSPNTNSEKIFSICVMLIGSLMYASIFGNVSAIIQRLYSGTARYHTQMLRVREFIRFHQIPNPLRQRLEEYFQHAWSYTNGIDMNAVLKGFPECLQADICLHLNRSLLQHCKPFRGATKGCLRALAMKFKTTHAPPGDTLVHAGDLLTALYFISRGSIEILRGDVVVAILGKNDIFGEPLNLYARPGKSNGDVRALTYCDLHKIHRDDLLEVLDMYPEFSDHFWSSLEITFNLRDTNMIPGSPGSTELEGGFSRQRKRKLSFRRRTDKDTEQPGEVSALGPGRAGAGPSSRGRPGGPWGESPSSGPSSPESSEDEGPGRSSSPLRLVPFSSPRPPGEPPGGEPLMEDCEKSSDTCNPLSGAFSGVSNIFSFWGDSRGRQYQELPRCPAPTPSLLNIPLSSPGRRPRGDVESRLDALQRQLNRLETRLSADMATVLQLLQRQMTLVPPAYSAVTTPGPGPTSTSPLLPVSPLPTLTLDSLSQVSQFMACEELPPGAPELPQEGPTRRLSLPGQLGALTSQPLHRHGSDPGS

Row | SMILES | hERG current change (%, negative = inhibition) at 10uM
1 | O=[N+]([O-])c1ccc(Nc2ccccc2O)c2nonc12 | 8.01%
2 | CC(=O)N(c1ccccc1)c1ccc([N+](=O)[O-])cc1[N+](=O)[O-] | -21%
3 | CCOc1ccccc1NC(=O)c1nnn(-c2ccc3c(c2)OCCO3)c1N | 15.4%
4 | COC(=O)c1cc(NC(=O)Cc2ccc(OC)c(OC)c2)cc(C(=O)OC)c1 | 7.39%
5 | COc1ccc(-c2nnc(SCC#CCO)o2)cc1OC | 4.93%
6 | O=C(NCCN1C(=O)C2C3C=CC(C3)C2C1=O)Nc1cccnc1 (stereo not shown) | 9.06%
7 | Oc1ccccc1N1CCN(C(=S)NCc2ccccc2)CC1 | -18.2%
8 | Cc1noc(C)c1COc1ccc(C(=O)NNC(=O)c2ccccc2F)cc1 | -2.81%
9 | COc1ccccc1CN(Cc1cc2cc(C)cc(C)c2[nH]c1=O)Cc1nnnn1CC1CCCO1 (stereo not shown) | -6.19%
10 | CCOC(=O)C1CCN(S(=O)(=O)Cc2ccc(Cl)cc2)CC1 | 1.25%
11 | COc1ccc(CNC(=O)[C@H](C)NC(=O)N2CCn3c2nc2ccccc23)cc1 | -57.7%
12 | Cc1ccc2nc(NC(=O)CN3C(=O)C4CC=CCC4C3=O)sc2c1 (stereo not shown) | 2.18%
13 | CCC(C)/C=C(C)/C=C/C1=CC2=C(Cl)C(=O)C(C)(OC(C)=O)C(=O)C2=CO1 (stereo not shown) | 4.55%
14 | COc1ccc2c(c1)CC/C(=C/c1cc(OC)c(OC)c(OC)c1)C2=O | -1.54%
15 | CN(CCCNC(=O)CN1C(=O)CC(C)(C)S(=O)(=O)c2ccccc21)C1CCCCC1 | 3.34%
16 | CSCCOC(=O)C1=C(C)Nc2ccc(C)cc2S1 | -10%
17 | COc1cccc(N(C(=O)c2snc(C(N)=O)c2N)C(C(=O)NCc2ccccc2)c2ccc(O)cc2)c1 (stereo not shown) | -37.2%
18 | CC1(C)C([N+](=O)[O-])C(c2ccc(F)cc2)NC(c2ccc(F)cc2)C1[N+](=O)[O-] (stereo not shown) | 15.1%
19 | O=C(NC(=S)NCCN1CCOCC1)c1ccccc1Br | 3.35%
20 | CC(=O)NC1CCCN(O)C(=O)/C=C(\C)CCOC(=O)C(NC(C)=O)CCCN(O)C(=O)/C=C(\C)CCOC(=O)C(NC(C)=O)CCCN(O)C(=O)/C=C(\C)CCOC1=O (stereo not shown) | -8.68%
21 | O=C1NC(=S)N/C1=C/c1cc([N+](=O)[O-])ccc1N1CCOCC1 | -62.9%
22 | COc1cc(/C=N/n2c(-c3cc(C)[nH]n3)n[nH]c2=S)cc(OC)c1OC | 18.7%

Row | SMILES | hERG current change (%, negative = inhibition) at 10uM
23 | CCOc1ccc(C(=O)CCC(=O)N2CCC(C(=O)OC)CC2)cc1 | 5.17%
24 | Cc1occc1C(=O)Nc1cccc(C(F)(F)F)c1 | -3.42%
25 | CN(C)c1ccc(NC(=O)CSCc2nc3c(nnn3Cc3ccc(F)cc3)c(=O)[nH]2)cc1 | -5.05%
26 | Cc1cc(=O)oc2c3c(cc(OCC(=O)NCc4ccncc4)c12)OC(C)(C)CC3 | -27.7%
27 | Cc1c(C(=O)N2CCC(C(N)=O)CC2)oc2ccc(Br)cc12 | -20.9%
28 | COc1ccc(OC)c(C(=O)N2CCC(C(=O)c3ccc(F)cc3)CC2)c1 | -4.44%
29 | Cc1cccc(NC(=O)c2nc[nH]c2C(=O)N[C@H](C)c2ccccc2)c1 | 9.28%
30 | O=C(O)CC1S/C(=N/N=C2CCCCC2)N(c2ccccc2)C1=O (stereo not shown) | 10.3%
31 | CN1CCC(=NNC(=O)c2cn(-c3ccccc3)nc2-c2ccccc2)CC1 | 5.43%
32 | Cc1ccc(CNC(=O)C2CCN(S(=O)(=O)c3ccc4c(c3)CC(C)N4C(=O)C3CC3)CC2)cc1 (stereo not shown) | -2.56%
33 | CCn1cc(C(=O)NCc2ccco2)c2cc(OC)c(OC)cc2c1=O | -20.9%
34 | COc1ccc(C2=NOC(C(=O)NCc3cccs3)C2)cc1OC (stereo not shown) | 13.6%
35 | CC(C)CC(NC(=O)c1cccs1)c1nnc(SCc2ccc(Cl)c(Cl)c2)n1C (stereo not shown) | -6.85%
36 | CCOC(=O)CSc1nc2ccc(C)cc2cc1C#N | -12.1%
37 | COc1ccc(-n2c(CNC(=O)COc3ccccc3)n[nH]c2=S)cc1 | 13.1%
38 | COC(=O)CSc1nc(N)nc(C)c1Br | 16.2%
39 | O=C1Nc2ccccc2Nc2ccc([N+](=O)[O-])cc21 | -6.92%
40 | COc1ccc(CC(=O)Nc2nc(C)cs2)cc1S(=O)(=O)N1CCOCC1 | -11.5%
41 | Cc1ccc(/C=N/NC(=O)c2cc3c(s2)CCCC3)o1 | 3.39%
42 | Cc1cnc(NC(=O)CSc2ccc(Cl)cc2)s1 | -15.7%
43 | Cc1sc2ncn(CC(=O)N3CCN(c4ccccc4)CC3)c(=O)c2c1S(=O)(=O)N1CCOCC1 | -16%
44 | Cc1ccc(N2CC(C(=O)NCc3nnnn3-c3ccc(C)c(C)c3)CC2=O)cc1 (stereo not shown) | -19.8%

Row | SMILES | hERG current change (%, negative = inhibition) at 10uM
45 | O=C(O)c1cccc2c1C(=O)c1ccccc1-2 | 23.4%
46 | CCCCC1=NN(C(=O)c2cocc2C)C(O)(C(F)(F)F)C1 (stereo not shown) | 5.91%
47 | Cc1[nH]c(=O)[nH]c(=O)c1S(=O)(=O)N1CCCC1 | 17.6%
48 | CC(C)CCNC(=O)C(c1cccs1)N(CC1CCCO1)C(=O)Cn1nnc2ccccc21 (stereo not shown) | 8.36%
49 | COC(=O)/C(=C/Nc1ccc(O)cc1)[N+](=O)[O-] | 12.7%
50 | COc1ccccc1CNCC(=O)N1CC(=O)Nc2ccccc21.O=C(O)C(=O)O | 21.6%
51 | COc1cccc(N(C(=O)Cn2nnc(-c3ccc(F)cc3)n2)C(C(=O)NCC2CCCO2)c2ccc(Cl)cc2)c1 (stereo not shown) | 15.3%
52 | Cc1c(C)[n+](=O)c(-c2ccc(F)cc2)c(C)n1[O-] | 0.0285%
53 | Cc1nnc(SCC(=O)Nc2ncc3c(n2)CC(C)(C)CC3=O)s1 | 0.652%
54 | COc1ccc(CCNC(=S)N2CCC(Cc3ccccc3)CC2)cc1OC | -41.1%
55 | CCOC(=O)c1[nH]c2ccccc2c1NC(=S)Nc1ccccc1 | 11%
56 | COc1nc(N(C)C)nc(N(OC)S(=O)(=O)c2ccccc2Cl)n1 | -5.85%
57 | O=C(N[C@@H](Cc1c[nH]c2ccccc12)C(=O)O)c1ccccc1Cl | 3.44%
58 | O=C(Cn1cc2c(n1)CCCC2)NCCCN1CCN(C2CCCCC2)CC1 | 6.35%
59 | CN1C(=O)S/C(=C/c2ccc(OCc3cccc(C(=O)O)c3)cc2)C1=O | 22.5%
60 | COc1cc(CNCCSc2nnnn2C)cc(Br)c1OCc1ccccc1F.Cl | -19.5%
61 | O=C(C[n+]1ccc(C(=O)N/N=C/c2ccc(OCc3ccccc3)cc2)cc1)c1ccccc1.[Br-] | 1.3%
62 | NC(=O)c1ccc(NC(=O)CCCN2C(=O)c3ccccc3C2=O)cc1 | 6.76%
63 | Cc1nc(-c2ccccn2)sc1C(=O)Nc1ccc(F)cc1F | 12.5%
64 | CC1(C)Oc2ccc(C(=O)Nc3ccccc3)cc2N(CC#N)C1=O | -7.58%
65 | Cn1c(=O)c2c(nc(CN3CCOCC3)n2CC(O)CO)n(C)c1=O (stereo not shown) | -7.88%
66 | COc1ccc(/C=N/NC(=O)c2cccc(O)c2)cc1Cn1nc(C)c([N+](=O)[O-])c1C | 41%

Row | SMILES | hERG current change (%, negative = inhibition) at 10uM
67 | CCn1c(CCNC(=O)c2cccs2)nnc1SCC(=O)NC1CCCCC1 | 0.651%
68 | CCOC(=O)c1[nH]c(COC(=O)c2ccccc2NC(=O)c2ccco2)c(C(=O)OCC)c1C | 11.6%
69 | COc1ccc(C2(CCN)CC(C)N(C)CC2C)cc1.Cl (stereo not shown) | -3.79%
70 | COC(=O)c1c(NC(=O)CN2CCC3(O)CCCCC3C2c2ccc(F)cc2)sc(C)c1C (stereo not shown) | -7.57%
71 | Cc1ccc(CN(Cc2cc3cc(C)ccc3[nH]c2=O)C(=O)N2CCOCC2)cc1 | -13.2%
72 | CCOC(=O)Cc1csc(NC(=O)CSc2nnnn2-c2ccc(CC)cc2)n1 | -18%
73 | COc1ccc(C2=NS(=O)(=O)N(C)C(C(=O)NC(C)c3ccccc3)=C2)cc1OC (stereo not shown) | -2.67%
74 | NC(=S)NNC(=O)c1ccccc1 | -10.2%
75 | O=C(CCNC(=O)c1ccc(Br)cc1)Nc1ncccc1O | 21%
76 | COc1ccc(/C=N/NC(=S)Nc2c(C)n(C)n(-c3ccccc3)c2=O)cc1OC | 8.52%
77 | CSCC[C@H](NS(=O)(=O)c1ccc(C(C)=O)cc1)c1nnc2ccccn12 | 26.4%
78 | Cc1oc(C(C)(C)C)c(CN2CCOCC2)c1C(=O)O.Cl | 23.6%
79 | Cc1ccc(-c2nnc(SCC#N)n2N)cc1 | 17.5%
80 | CCOC(=O)C1=C(C)Nc2ccccc2N=C1N | 9.47%
81 | CCCn1c(SCC(=O)NCc2ccco2)nnc1-c1ccncc1 | 19.9%
82 | COc1c(Cl)cc(C(=O)Nc2ccc(Cl)cn2)cc1Cl | 7.8%
83 | Cc1ccc(S(=O)(=O)Nc2ccsc2C#N)cc1 | 18.1%
84 | Cc1cccc(-n2ncc3c2CCCC3NC(=O)CCN2CCCCO2)c1C (stereo not shown) | 12.8%
85 | NC(=O)C1(N2CCCCC2)CCN(C(=O)CSc2nc(C(F)(F)F)cc(=O)[nH]2)CC1 | -8.17%
